Experimental data as given in a collection of fitness landscapes (doi:10.1038/s41467-024-54723-y).
Over roughly 18,000 sequences, “TetR repression strength (sort-seq, GFP reporter)” has its median near 0.23; the highest 2% begin near 0.68. This is one part of the list.

molecular target: TetR (class B, Tn10) (UniProt P04483); assay: TetR repression strength (sort-seq, GFP reporter) (relative to tetO2 = 1); higher = stronger repression; conditions: E. coli
Summary of the method: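 Repression strength was calculated by subtracting the read-weighted mean bin from the top bin index plus one and dividing by the unaltered operator's value. The plasmid library was low-copy in E. coli SIG10-MAX, with eight randomized operator positions between a constitutive promoter and sfGFP and constitutive TetR. Cultures grew 5 h at 37 °C in LB containing 50 µg/mL chloramphenicol before 10^6 cells were sorted by FACS into 13 fluorescence bins, each sequenced on Illumina. Three independent transformations were averaged for members having ≥30 reads in all replicates and a CV ≤0.5.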

Sequence of UniProt P04483 (P04483 whole entry): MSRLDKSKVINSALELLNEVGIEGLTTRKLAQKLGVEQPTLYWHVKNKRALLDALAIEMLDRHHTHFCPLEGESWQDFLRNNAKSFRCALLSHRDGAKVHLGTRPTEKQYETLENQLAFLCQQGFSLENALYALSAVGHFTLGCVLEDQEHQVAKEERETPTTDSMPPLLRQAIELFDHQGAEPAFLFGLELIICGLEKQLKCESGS

Sequence	TetR repression strength
TCCCACCTAGTGCGCGAGA	0.258
TCCCTACGAGTAGGGGAGA	0.172
TCCCAGGTAGTACTTGAGA	0.0352
TCCCGGGCAGTTCTGGAGA	0.191
TCCCTGGAAGTGGGCGAGA	0.338
TCCCGATAAGTCCGGGAGA	0.165
TCCCTATAAGTAGAGGAGA	0.235
TCCCTCGCAGTGCAGGAGA	0
TCCCATCTAGTGGACGAGA	0.263
TCCCAGAGAGTAGGGGAGA	0.281
TCCCCGTTAGTTTTAGAGA	0.25
TCCCTTCCAGTTCACGAGA	0.325
TCCCGTCAAGTTTGAGAGA	0.0263
TCCCAATAAGTAGAAGAGA	0.327
TCCCTGGGAGTCGGAGAGA	0.276
TCCCGACAAGTCAGGGAGA	0.225
TCCCGAACAGTTTAGGAGA	0.409
TCCCGTCAAGTAGGCGAGA	0.181
TCCCGAGAAGTTCCCGAGA	0.128

Sequence	TetR repression strength
TCCCGATAAGTCGGTGAGA	0.45
TCCCAATGAGTTGTTGAGA	0.194
TCCCGGGAAGTGGCCGAGA	0.222
TCCCCAGAAGTAAACGAGA	0.323
TCCCAAAAAGTGCGGGAGA	0
TCCCAATCAGTCGTGGAGA	0.338
TCCCGGGGAGTGAATGAGA	0.141
TCCCGAGGAGTAAACGAGA	0.276
TCCCATGAAGTGTGAGAGA	0.225
TCCCGGGAAGTTACGGAGA	0.707
TCCCCGCCAGTTTTTGAGA	0.346
TCCCGTATAGTCGTTGAGA	0.155
TCCCTCGAAGTAGATGAGA	0.104
TCCCTTTCAGTGACCGAGA	0.946
TCCCGTCGAGTAAATGAGA	0.176
TCCCCTAGAGTAGCGGAGA	0.197
TCCCACATAGTGGGAGAGA	0.144
TCCCAGGGAGTAAGCGAGA	0.0404
TCCCCGCAAGTGGCGGAGA	0.388

Sequence	TetR repression strength
TCCCCTCGAGTTTTCGAGA	0.217
TCCCGGAAAGTCTCGGAGA	0.107
TCCCTGTTAGTTTGAGAGA	0.856
TCCCACGTAGTGTGGGAGA	0.198
TCCCCTCAAGTGTGGGAGA	0.214
TCCCTGAAAGTCAGCGAGA	0.18
TCCCTATTAGTAGCCGAGA	0.279
TCCCAAGTAGTGTTCGAGA	0.283
TCCCTCTGAGTACCTGAGA	0.2
TCCCACTTAGTCGCGGAGA	0.304
TCCCTATCAGTCGCGGAGA	0.456
TCCCTATTAGTTTGCGAGA	0.417
TCCCAAAGAGTTACCGAGA	0.287
TCCCGTAGAGTTTTGGAGA	0.0915
TCCCCTGCAGTGGTGGAGA	0.314
TCCCTACCAGTATAGGAGA	0.0137
TCCCTCTGAGTGAGTGAGA	0.357
TCCCGATGAGTACGTGAGA	0.0896
